The RNAGym collection of RNA variant scans (doi:10.7554/elife.90254)
Read counts are not given, so values of variants with three or more changes are uncertain.

B1: LINE1-full (parent)
chain: UACGUAGGUGGUUUUCCCCUGAUAGUGCUAAGGGGGCCUGGAAGUUUGGACUGGGCAGAGCUCAACACAGCGUGGCAAAGUGGCUGUGGCUAGACUGCCUCUCUGGAUUCCUCGUCACUCAGCAGGGCAUCUCUGAGAGAAAUGCC

Variants of: B1
Assay: self-cleavage, relative activity (ratio to wild type); higher = more cleavage; in vitro, sequencing; the parent is a self-cleaving ribozyme

Variant | self-cleavage
U45C U47C A57U | 0.14
U46C G88A A94G U100C A121U A136G | 0.07
U45C A79U U81A | 2.69
U46C U109A G137U | 1.02
U46C A92G A129G | 0.21
U46G G55A C71A | 0.02
U46A U130C A140G | 1.49
U46C U73C A78G | 0.61
A43G U108C A124G | 1.93
A43G U119C U134C | 0.61
U46A A59G U73C G105A A140G | 0
A43U A94U U102C A140G | 0.34
U46C U47G A50G A77U U85A | 0
A43U A78G A124G | 0.6
U46A U96C U143A | 0.05
U45C U130C A140G | 1.13
A43U A69U U73C U119C | 1.19
A43G U115A U130C | 0.77
U45A U47A A94U A141G | 0.27
A43U U62A A69G | 0.09
U45C U96A U100C A124G A141G | 0
A43U A79G U91C U119A | 0.41
A43U U62C G97A | 0.02
U45A U115C A129U | 2.06

Variant | self-cleavage
U46C A67G U73A A117U A124U | 1.44
U45A A121G A142C | 0.9
U46C A77U U109C U134A | 0
U45C A50G U87A A124G | 0
U47A A77G U100C | 2.35
U45C U73A A94G A129G A141G | 0.42
U46G A67G A141G U143A | 0.75
U46C G125U A140U | 1.43
U45G A59U A92G A138G | 0.3
U46C U62C A140G U143C | 0.5
U46A A121G U130C | 1.6
U46C G49U A107G | 1.02
U45C G114A A136G | 1.28
U45C C99A A129G | 0.59
U45C U62A U104C U130C | 0
U46A U73C U100C | 2.3
U45A A79G U85A G86U | 0.05
U46A U85A U96A | 0.06
U45C A67G U130C | 0
U45C A79G G114A | 1.78
U46C A124C A142G C145G | 1.34
U45C A67G A124U A142G | 0
U46C A57G A77U U87A | 0.08
U45C U112A A121G | 2.96

Variant | self-cleavage
U45A C66A U73C A77G U130C | 0.02
A43U U96C U115A U130A A136C | 0.06
U46A U108C U143C | 1.73
A43G U96C C113U | 0.17
U46C C56U A64U | 0.16
A43U U47C A77G U96A U108C | 0
U46A A107U C133A | 1.41
U45A G86A U115C | 0.09
U45C A129G U132C | 1.39
U47A A57U A65G U119A A136G | 0.03
U45C U52A G82U U96A U130C U143C | 0
U46G U91A A140U U143C | 0.92
A43G U85C U96C | 0
U46A A64G U108C | 0
U46A A94G U102A | 0.25
U45A G83U U96C | 0.04
U47A A78G U109C A124G | 0.66
U45C A64G G80A U104C A124U G125A A142G | 0.4
U45A U52A U81A | 1.41
U45C U62C A92U | 0.11
A43U U134G G144C | 1.3
U46C A107G U119A | 1.02
U46C G88C U104C A124G | 0.39
U46C C76U U96C | 0.3

Variant | self-cleavage
A43U A117G U143A | 1.44
U47A A65G G74A A117G | 0
U45A G114A U119C | 1.9
U46A U62C A136G | 0.03
U46A A65G A94C | 0.03
U46C U102A A138G | 1.97
U46C A129G U130C | 0
U46C A77U U134C | 1.31
U47A A77U U134C | 1.56
A43G U96A A129G | 0.06
U46C A78U G106A | 1.46
U45G U100A C146U | 0.85
U45A U87C U104A | 0
A43G U87C A124U U143C | 0.08
U45C A67G A78G A94U | 0
U46G G88A U102A | 0.05
U45C U62C A77U U132C | 0.12
U46C A57G A67U U143C | 0
G44C G58C C66U U91C C98A | 0.02
A43U G58A A121U U130C A138G | 0.07
U47A A69G U132A U143C | 0
U45C A59G A69U A129G | 0
U45G U62G A64G | 0
A43U U73C A79G U130A | 1.11

Variant | self-cleavage
U46A A57C A79G A117C | 0.16
U45C A64U G88A | 0
U45C A69G A77U | 0.79
U46C A121G U130C | 1.44
U47A A77G G86A | 0.08
A43G U81A U91C | 0.48
U47A A65G U96A A138G | 0.02
U46C A69G U87A | 0
U47A A65G U85A | 0.01
U46C C68A U112C | 0
U46C C68U G114A C116U | 0.32
U47A A65G G80U U100C A142G | 0.03
U45C A59G U102C | 0
U46C U119A U130A | 0.59
U46C A69G U134A A140U | 0.5
A43U C98U C118U A140U | 0.22
G44U A121G U134C | 1.59
U47A A79G U143G | 0.96
A43U A64U A79C U102C A140G | 0
U46C A69G A78G G83A | 0.21
A43G U108C C145U | 0.92
U45C C120A A138U | 0.97
A43U G53A U102C | 1.12
U46C C61U A65U U104C | 0.06

Variant | self-cleavage
U45C A77U A94G | 0.42
U46A A59G U87A | 0.04
U45A A78G A140G | 1.14
U46C A78G A138G | 1.97
U46C A67G U115A | 0.84
U46C G58A A67G U81C | 0.72
U45C U96A U130C | 0.07
U45G U81G G86A | 0.06
U46C A79G A140G | 1.15
U46A U73A U104G A136G | 1.59
U45C G60A U143C | 0.05
U45C U46A A77G U119C G122C | 2.87
U46C U47A G88U U119C | 0.01
U46C A50G U109C | 0
U45C U47A A77U | 1.71
U46C U73C A121G | 1.02
A43U U47C A64G U96A U130A A141G | 0.11
U46C U47C C98A U134A | 0.32
U46C U47A A92U A138G | 1.13
U46A A107U U109C | 1.41
U46C G114A A117U | 1.3
U45A A67G A129U | 0.89
U46C A77U A140G U143A | 1.12
A43U A65G U108C U134A A140C | 0

Variant | self-cleavage
U45C U108C G125U | 1.44
A43G U115A C116U A117C | 1.1
U46A A67G A94G | 0.25
U46C G75A A138U | 1.46
U45C A107G U112C U130C | 0
U45C G58A U112A | 0.12
U45C C61U A64C | 0.07
U45C U108C A140G | 2.04
U46C C99A G105U | 0.48
U46A A107G A141G | 1.69
U46A A50G A64G U73C A138G | 0
U46C G60U A67G | 0
U46C U91C U119C | 0.66
U46A A78G U115A | 1.07
U46C U73A G97U | 0.12
U45C U62C A77G C101A | 0.02
U45C U62C C146U | 0.09
A43G U108C A136U | 1.53
U46C A64G U132C | 0.2
A43U U47A U108C C118A | 1.41
A43G U100C A140U | 1.25
U46C U104A A117U A142G | 1.88
A43U U62C U100C U115C | 0
